# Among all 310,000 compounds or so, about 2,200 (0.71%) showed an effect of 50% or more. Effects have a minus sign here. The list shows a part of the results.
# Biological target: human ether-à-go-go-related gene (hERG) potassium channel (human, UniProt Q12809)
# Assay: primary screen, population patch clamp on CHO cells stably expressing hERG
# Chain of human ether-à-go-go-related gene (hERG) potassium channel (Q12809 whole entry, looked up): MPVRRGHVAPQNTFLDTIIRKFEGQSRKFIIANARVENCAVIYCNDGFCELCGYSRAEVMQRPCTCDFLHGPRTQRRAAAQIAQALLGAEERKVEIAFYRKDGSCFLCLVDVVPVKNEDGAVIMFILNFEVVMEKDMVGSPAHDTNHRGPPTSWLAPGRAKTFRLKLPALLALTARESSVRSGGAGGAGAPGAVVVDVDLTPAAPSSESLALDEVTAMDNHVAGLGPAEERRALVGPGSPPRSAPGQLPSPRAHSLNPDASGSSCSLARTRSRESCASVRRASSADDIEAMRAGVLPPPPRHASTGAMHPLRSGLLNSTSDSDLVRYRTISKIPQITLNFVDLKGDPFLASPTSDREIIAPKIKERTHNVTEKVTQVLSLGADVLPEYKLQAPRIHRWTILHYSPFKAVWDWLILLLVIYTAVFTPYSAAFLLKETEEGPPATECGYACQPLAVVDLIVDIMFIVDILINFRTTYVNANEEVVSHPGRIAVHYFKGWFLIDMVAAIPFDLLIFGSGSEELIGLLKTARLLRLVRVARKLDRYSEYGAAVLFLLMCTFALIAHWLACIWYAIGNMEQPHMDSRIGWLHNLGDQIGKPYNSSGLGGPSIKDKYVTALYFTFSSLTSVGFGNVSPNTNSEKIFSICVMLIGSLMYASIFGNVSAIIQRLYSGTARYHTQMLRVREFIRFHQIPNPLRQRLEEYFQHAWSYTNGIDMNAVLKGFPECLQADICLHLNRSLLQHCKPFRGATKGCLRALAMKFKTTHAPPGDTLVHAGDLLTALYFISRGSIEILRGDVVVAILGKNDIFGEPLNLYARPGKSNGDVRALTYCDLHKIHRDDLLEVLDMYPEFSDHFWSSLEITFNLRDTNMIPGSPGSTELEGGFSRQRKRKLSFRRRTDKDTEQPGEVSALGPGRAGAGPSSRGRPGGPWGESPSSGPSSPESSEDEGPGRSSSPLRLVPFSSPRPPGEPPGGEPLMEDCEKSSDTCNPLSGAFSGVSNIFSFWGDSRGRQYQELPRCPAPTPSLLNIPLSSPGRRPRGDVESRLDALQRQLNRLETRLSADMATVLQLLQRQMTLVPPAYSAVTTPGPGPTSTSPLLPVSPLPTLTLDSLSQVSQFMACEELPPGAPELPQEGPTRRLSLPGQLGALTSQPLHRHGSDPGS
row,SMILES,"hERG current change (%, negative = inhibition) at 1uM"
1,COc1ccc(S(=O)(=O)N2CCCC2C(=O)NCC(=O)Nc2cccc(Cl)c2C)cc1 (stereo not shown),8.7%
2,COc1ccc(-c2csc3ncnc(N4CCN(c5cccc(OC)c5)CC4)c23)cc1,12.8%
3,COC(=O)[C@@H](NC(=O)/C=C/c1ccc(OC)cc1)C(C)C,5.71%
4,CC1(C)CSC(=NCCc2ccccc2)N1C(=O)c1ccc(C#N)cc1,8.17%
5,Cc1nn(C)c(C(=O)NNC(=S)NC2CCCCC2)c1Cl,1.45%
6,COc1ccccc1NC(=O)Cn1c(C)cc(=O)c2cccc(OC)c21,4.22%
7,O=C(c1ccc(Cl)c([N+](=O)[O-])c1)N1CCCc2ccccc21,8.52%
8,CN(CC(=O)Nc1cccc(F)c1)C(=O)c1ccc(OCC2CCCO2)cc1 (stereo not shown),1.5%
9,COc1ccc(C(CNC(=O)c2cccc(NS(=O)(=O)c3ccc(C)c(F)c3)c2)N2CCOCC2)cc1 (stereo not shown),7.97%
10,CN(C)C(CNC(=O)CCCOc1ccccc1)c1ccco1 (stereo not shown),13%
11,CCCN1C(=O)C(Cc2nc3ccccc3c(=O)n2-c2ccccc2)c2ccccc21 (stereo not shown),18.3%
12,O=C(N/C(=C\c1cccnc1)C(=O)N1CCOCC1)c1ccco1,2.72%
13,C=CCON/C(CCC)=C1\C(=O)CC(C)(C)CC1=NC,18.6%
14,C=CCn1c(COc2ccc(Cl)cc2)nnc1SCC(=O)Nc1ccc(S(N)(=O)=O)cc1,1.47%
15,Cc1ccc(S(=O)(=O)N(C)C)cc1NC(=O)COC(=O)C1(c2ccccc2)CC1,10.9%
16,O=C(CSc1nc2ccccc2o1)N/N=C/c1ccccc1C(=O)O,12.5%
17,Cc1ccc(C)c(C(=O)CC2(O)C(=O)Nc3ccccc32)c1 (stereo not shown),4.21%
18,CN(C)C(CNC(=O)c1ccc(NC(=O)c2cccs2)cc1)c1ccccc1 (stereo not shown),13.8%
19,Cl.Fc1ccc(Nc2nc(N3CCOCC3)nc(N3CCOCC3)n2)cc1,11.1%
20,COc1cccc(NC(=O)c2cc(-c3cccnc3)nc3c(Cl)cccc23)c1,7.59%
21,COc1ccc(C2C(C(C)=O)=C(C)N=c3s/c(=C\c4ccc5c(c4)OCO5)c(=O)n32)c(OC)c1 (stereo not shown),14.2%
22,CCOc1cc(C(=O)NCc2ccccc2)ccc1OCC(=O)N1CCCCC1,5.79%

row,SMILES,"hERG current change (%, negative = inhibition) at 1uM"
1,CCOC(=O)C1=C(COC(=O)CNC(=O)c2ccc(C(C)(C)C)cc2)NC(=O)NC1C (stereo not shown),17.4%
2,O=C(Nc1nc(-c2ccccc2)cs1)C1CCCN(S(=O)(=O)c2ccccc2)C1 (stereo not shown),-0.82%
3,O=[N+]([O-])c1cccc(S(=O)(=O)N2CCN(S(=O)(=O)N3CCCCCC3)CC2)c1,17.7%
4,O=C(Nc1ccc(N2CCN(Cc3ccccc3Cl)CC2)cc1)c1cccnc1,7.24%
5,OC(c1ccccc1)(c1ccccc1)c1ccncc1,14.6%
6,Cc1ccc(CCNS(=O)(=O)c2ccc(C)cc2)cc1,5.43%
7,Cc1cccc(-n2c(=O)cc(N3CCN(c4ccc(F)cc4)CC3)[nH]c2=O)c1,1.83%
8,CC(C)(C)c1ccc(-n2ncc3c2CCCC3NC(=O)CCN2CCCO2)cc1 (stereo not shown),5.11%
9,O=C(Nc1ccc(F)cc1)C1CCCN(S(=O)(=O)c2ccc3[nH]c(=O)ccc3c2)C1 (stereo not shown),-0.985%
10,COc1ccc(CCNC(=O)c2noc(C(C)C)c2[N+](=O)[O-])cc1OC,14.6%
11,CCN(CC)CCCCCOc1ccccc1OC,14%
12,O=C(Cn1c(=S)[nH]c2ccccc2c1=O)NCCc1ccccc1,15.8%
13,O=C(O)CCCCCn1c(SCc2cc(=O)n3ccccc3n2)nc2ccsc2c1=O,6.41%
14,O=C(NCCS(=O)(=O)NCc1ccccc1)c1ccccc1,4.32%
15,O=C1C=C(N2CCOCC2)c2ccccc2C1=O,14.9%
16,COc1ccc2c(c1)c1nnc(SCC(=O)Nc3ccccc3F)nc1n2C,10.7%
17,CCN(CC(=O)Nc1ccc(NC(C)=O)cc1)C(=O)Cc1c(Cl)cccc1Cl,15.9%
18,COc1ccc(N=c2oc3c(OC)cccc3cc2C(=O)NCc2ccco2)cc1OC,0.219%
19,O=C(NC1CCN(C(=S)NCc2ccco2)CC1)c1ccc(F)cc1,-27.1%
20,COc1ccc(Br)cc1CN1CCCCCCC1,-8.39%
21,COc1ccc(C2/C(=C(/O)c3ccccc3)C(=O)C(=O)N2c2ccccn2)cc1 (stereo not shown),11.5%
